# Measurements as given in the supplement of paper PMC10600219.
# Structures can show the parent of a compound that is named as a salt. Whole data set: some 2,800 compounds, median “cell viability relative to vehicle” near 1.1, cut for the lowest 2% near 0.19. Some of the results follow.
# Tested on: NCI-H2228 parental
# Test: cell viability relative to vehicle (fraction of vehicle); NCI-H2228 is an ALK-positive lung cancer line and DTP means drug-tolerant persister; higher = less growth inhibition
# Details: 100 nM; treatment time 6 days
# Method in brief: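 Drug-tolerant persister NCI-H2228 cells, produced by 13 days in 1000 nM of a targeted drug, and their parental counterparts were seeded into 384-well plates and, the following day, given the 3114-agent TargetMol anti-cancer compound library at 100 nM or DMSO vehicle. After 6 days, the CellTiter-Glo 3D Cell Viability Assay was used to read ATP. Each entry reports viability compared with vehicle-treated cells.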
row,SMILES,cell viability
1,CCCC(C)NC(=O)c1ccc(Cl)c(Cl)c1 (centres undefined),1.06
2,O=C1O[C@H]2[C@@H]3OC(=O)c4cc(O)c(O)c(O)c4-c4c(cc(O)c(O)c4O)C(=O)OC[C@H]2O[C@@H](OC(=O)c2cc(O)c(O)c(O)c2)[C@@H]3OC(=O)c2cc(O)c(O)c3c2[C@@H]2C1=CC(=O)[C@](O)(O3)C2(O)O [Geraniin],0.981
3,O=[N+]([O-])c1cc(C(F)(F)F)cc([N+](=O)[O-])c1NNC(=S)Nc1ccc(F)cc1,1.09
4,COc1cc2ncnc(Nc3ccc(Cl)cc3F)c2cc1OC,0.988
5,Oc1ccc(Nc2nc(-c3ccc(Cl)cc3)cs2)cc1,1.06
6,N#Cc1ccc2[nH]c(O)c(-c3ccc(CN4CCOCC4)cn3)c2c1,1.09
7,CNC(=O)c1c(C)oc2cc(Oc3ncnc4cc(OC)c(OC)cc34)ccc12 [Fruquintinib],1.06
8,CO[C@H]1C[C@@H]2CC[C@@H](C)[C@@](O)(O2)C(=O)C(=O)N2CCCC[C@H]2C(=O)O[C@H]([C@H](C)C[C@@H]2CC[C@@H](O)[C@H](OC)C2)CC(=O)[C@H](C)/C=C(\C)[C@@H](O)[C@@H](OC)C(=O)[C@H](C)C[C@H](C)/C=C/C=C/C=C/1C [Rapamycin],0.833
9,N[C@@H]1CCCN(c2c(/C=C3\SC(=O)NC3=O)cccc2-c2ccccc2)C1,0.816
10,CCOc1ccccc1C(N)=O [2-Ethoxybenzamide],1.18
11,COc1nccnc1NS(=O)(=O)c1ccc(NC(=O)/C=C/c2ccc([N+](=O)[O-])s2)cc1 [Necrosulfonamide],1.13
12,CN(C)C(=O)c1ccc(S(=O)(=O)c2ccc(NC(=O)[C@@](C)(O)C(F)(F)F)c(Cl)c2)cc1,0.992
13,C#C[C@]1(O)CC[C@H]2[C@@H]3CCc4cc(OC)ccc4[C@H]3CC[C@@]21C [Mestranol],1.09
14,CC(C)NCC(O)c1ccc(NS(C)(=O)=O)cc1 (centres undefined) [Sotalol hydrochloride],1.14
15,CNc1ncc2cc(-c3cc(NC(=O)NCCC(C)(C)C)c(F)cc3C)c(C)nc2n1,0.861
16,COc1ccc2cccc(CCNC(C)=O)c2c1 [Agomelatine],1.13
17,C1=N/C2=N/c3ccc(OCCN4CCCC4)c(c3)COC/C=C/COCc3cccc(c3)C(=C1)N2 [Pacritinib],1.1
18,Cc1[nH]c(/C=C2\C(=O)Nc3ccccc32)c(C)c1CCC(=O)O [Orantinib],1.16
19,CC(=O)N1CCN(c2ccc(OCC3COC(Cn4ccnc4)(c4ccc(Cl)cc4Cl)O3)cc2)CC1 (centres undefined) [Ketoconazole],1.12
20,CN(CCOc1ccc(NS(C)(=O)=O)cc1)CCc1ccc(NS(C)(=O)=O)cc1 [Dofetilide],1.2
21,CNCC(O)c1ccc(O)c(O)c1 (racemic) [DL-Adrenaline Hydrochloride],0.979
22,CCN(CC)CCCC(C)Nc1c2ccc(Cl)cc2nc2ccc(OC)cc12 (centres undefined) [Quinacrine dihydrochloride],1.28
23,CC(=O)c1cc(O)ccc1O [2-5-dihydroxyacetophenone],1
24,COc1cc(OC)cc(N(CCNC(C)C)c2ccc3ncc(-c4cnn(C)c4)nc3c2)c1 [Erdafitinib],1.09
25,O=C1C=C2C=C[C@@H](O)[C@H](O)[C@H]2O1 [griffonilide],1.11

row,SMILES,cell viability
1,CCCCCCCCCCCCCCCC[N+](C)(C)CCN(Cc1ccc(OC)cc1)c1ncccn1 [Thonzonium Bromide],1.19
2,O=C(O)P(=O)(O)O [Foscarnet sodium],1
3,COc1cc2c(=O)c(-c3ccc(O)cc3)coc2cc1O[C@@H]1O[C@H](CO)[C@@H](O)[C@H](O)[C@H]1O [Glycitin],1.17
4,CC(C)(C)NS(=O)(=O)c1cncc(-c2cc(F)c3nc(N)nn3c2)c1,1.07
5,N#CCC(C1CCCC1)n1cc(-c2ncnc3[nH]ccc23)cn1 (centres undefined),1.02
6,CC1=C(C(=O)Nc2cc3cn[nH]c3cc2F)C(c2ccc(Cl)cc2F)N=C(c2ccnc(Cl)c2)N1 (centres undefined),0.928
7,Cc1ccc2c(Nc3ccc(Cl)cc3)nccc2c1Nc1ncccc1-c1ncnc2nc[nH]c12 [B-Raf inhibitor 1 dihydrochloride],1.05
8,CC(C)(C)c1ccc(S(=O)(=O)Nc2ccc(-n3ccnc3)cc2)cc1,1.08
9,Cc1cc(-c2nc(-c3ccc(OC(F)(F)F)cc3)no2)nn1Cc1ccnc(N2CCN(C3CC3)CC2)c1,0.73
10,COC(=O)[C@H]1[C@H]2C[C@@H]3c4[nH]c5cc(OC)ccc5c4CCN3C[C@H]2C[C@@H](OC(=O)c2cc(OC)c(OC)c(OC)c2)[C@@H]1OC [Reserpine],0.905
11,COc1cc2c(cc1OC)-c1cc3ccc(OC)c(OC)c3c[n+]1CC2 [Palmatine],1.12
12,CNC(=C[N+](=O)[O-])NCCSCc1ccc(CN(C)C)o1 [Ranitidine Hydrochloride],1.28
13,C=CCc1ccc(O)c(-c2ccc(O)c(CC=C)c2)c1 [Honokiol],0.995
14,CC(C)C[C@H](NC(=O)[C@@H](O)[C@H](N)Cc1ccccc1)C(=O)O [Bestatin hydrochloride],1.16
15,CC(C)C[C@H](NC(=O)[C@@H](O)[C@H](N)Cc1ccccc1)C(=O)O [Ubenimex],1.08
16,O=c1c(-c2ccc(O)cc2)coc2cc(O)cc(O)c12 [Genistein],1.25
17,Cc1cc(N2CCOCC2)ccc1Nc1nc(NC2CCCCC2)c2[nH]cnc2n1,1.29
18,Cc1c(-c2ccc(N3CCc4cccc(C(=O)Nc5nc6ccccc6s5)c4C3)nc2C(=O)O)cnn1CC12CC3CC(CC(C3)C1)C2,0.797
19,O=C(NOCCO)c1cc(CN2OCCCC2=O)c(F)c(F)c1Nc1ccc(I)cc1F,0.779
20,CSc1cccc(Nc2ncc3cc(-c4c(Cl)cccc4Cl)c(=O)n(C)c3n2)c1,0.541
21,CCOc1ccn(-c2ccc(F)cc2)c(=O)c1C(=O)Nc1ccc(Oc2ccnc(N)c2Cl)c(F)c1,1.03
22,CCC(=O)NS(=O)(=O)c1ccc(-c2c(-c3ccccc3)noc2C)cc1 [Parecoxib],0.95
23,Cc1nc(Nc2n[nH]c3c2CN(C(=O)N[C@H](CN(C)C)c2ccccc2)C3(C)C)c2sccc2n1,0.368
24,CNC[C@H](O)c1cccc(O)c1 [Phenylephrine hydrochloride],1.05
